Test results from PubChem BioAssay AID504466 (National Center for Advancing Translational Sciences (NCATS), 2011).
Screen size: about 330,000 compounds; about 4,200 (1.3%) were called active. This list was built around the results that the source calls inconclusive (neither active nor inactive); the mix of calls is not that of the screen. Calls follow the shape of the dose curve; as a rule, active = well fitted activation curve with a large enough effect; inconclusive = small, poorly fitted or top-dose-only effect; inactive = no such curve, though single readings can be large or run the other way. Potencies beside an inconclusive call are fits to weak or partial responses and may not hold up.
Potency is read from the fitted curve at half-maximal effect; tags tell the direction and shape of the fitted curve.

Test: qHTS screen for small molecules that induce genotoxicity in human embryonic kidney (HEK293T) cells expressing luciferase-tagged ELG1; also: nearly all actives have a fitted effect of over 60% in size; as to activity change, positive = activation: % of control where 0% means no effect
Settings: HEK293T ELG1-luciferase reporter, luminescence, 16 h; series mostly up to 46 µM; activity change, positive = activation: at the top concentration
Method in brief: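 Genotoxic stress is detected as increased luminescence from luciferase-tagged ELG1 in HEK293T cells, measured with ONE-Glo after a 16 hr treatment at 37 °C.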
In the case of `O=C(COC(=O)CNS(=O)(=O)c1ccc(F)c(F)c1F)NCCc1ccccc1`, the Potency was inconclusive: 32.6 µM [activator, partial curve, poor fit]. For `COc1ccc2cc3c(N)c(C(=O)N4CCCC4)sc3nc2c1`, the Potency was inconclusive: 3.16 µM [activator, partial curve, poor fit]. With `CN(C)c1ccc(-c2nnc(-c3cccnc3)o2)cc1` the Potency was active: 10.3 µM. With `Nc1nc(CSC(=S)N2CCOCC2)nc(Nc2ccccc2)n1` the Potency was active: 20.6 µM. For `COc1ccc(/C(N)=N/OC(=O)c2ccc(C)c([N+](=O)[O-])c2)cc1OC`, the Potency was inconclusive: 16.4 µM [activator, partial curve, poor fit]. In the case of `O=C(Nc1ccc(C(=O)N2CCCC2)cc1)c1ccc(F)cc1Cl`, the “activity change, positive = activation” value was inactive: 5.88%. In the case of `COc1ccc(Nc2ncnc3c2c(C)c(C)n3CCO)cc1`, the Potency was active: 8.2 µM. With `Cc1nc2nc(SCC(=O)NCCCN3CCCC3)nn2c(C)c1Cc1ccccc1Cl` the “activity change, positive = activation” value was inactive: 0.147%. For `COc1ccc(-c2csc(Nc3cccc(C)n3)n2)cc1`, the Potency was active: 4.61 µM. With `O=C(/C=C/c1ccco1)Nc1ccccn1` the Potency was active: 8.2 µM. With `Cc1cc2ccccc2n1CCNC(=O)c1cccs1` the Potency was inconclusive: 4.11 µM [activator, full curve]. In the case of `CCN1C(=O)c2cccc3c(S(=O)(=O)N4CCNCC4)ccc1c23`, the Potency was inconclusive: 16.4 µM [activator, partial curve, poor fit]. With `O=S(=O)(c1ccc(-c2nc3ccccc3s2)cc1)N1CCCC1` the Potency was inconclusive: 2.59 µM [activator, full curve, poor fit]. With `CCOc1ccccc1N(CC(=O)Nc1ccccc1F)S(=O)(=O)c1ccccc1` the “activity change, positive = activation” value was inactive: -6.3%. With `Cc1cc2ccccc2n1CCNC(=O)C1CCCCC1` the Potency was active: 23.1 µM. In the case of `CSc1ccc(/C=N/NC(=O)c2ccc(O)cc2)cc1`, the Potency was inconclusive: 20.6 µM [activator, partial curve]. For `CC1CN/C(=C\C(=O)c2ccc(Br)cc2)C(=O)N1` (stereo not given), the Potency was active: 1.3 µM. For `CCCOC1CCCN(C(=O)c2cc(COc3cncc(Cl)c3)on2)C1` (stereo not given), the Potency was inconclusive: 13 µM [activator, partial curve]. For `COc1ccc(-c2ccc(-c3nc4c(c(=O)[nH]c(=O)n4Cc4ccccc4)n3C)o2)c([N+](=O)[O-])c1`, the “activity change, positive = activation” value was inactive: -1.79%. With `O=C(Nc1ccc(Cl)cc1Cl)c1n[nH]c(Cn2cncn2)n1` the Potency was inconclusive: 18.4 µM [activator, partial curve, poor fit]. With `Cc1cc(/C(N)=N/OC(=O)c2ccc(Cl)cc2)no1` the Potency was active: 11.6 µM. With `Cc1cccc(C(=O)NCCNC(=O)c2ccco2)c1` the “activity change, positive = activation” value was inactive: 4.19%. In the case of `O=C(NCCc1ccc(F)cc1)c1ccc([N+](=O)[O-])cc1`, the Potency was inconclusive: 9.2 µM [activator, partial curve]. With `Cc1nc2cc3ccccc3cc2c(=O)[nH]1` the Potency was inconclusive: 11.2 µM [activator, partial curve, poor fit]. For `COC(=O)c1ccc(NC(=O)CN(c2ccc(OC)cc2)S(C)(=O)=O)cc1`, the Potency was inconclusive: 23.1 µM [activator, partial curve, poor fit]. For `N/C(Cc1cccs1)=N\OC(=O)COc1ccc(Br)cc1`, the “activity change, positive = activation” value was inactive: 23.3%. With `CN1CCC(NC(=O)c2cc(-c3cccc(Br)c3)nc3ccccc23)CC1` the Potency was inconclusive: 20.6 µM [activator, partial curve, poor fit]. With `COc1ccc(OC)c(N=c2oc3c(OC)cccc3cc2C(=O)NCc2ccco2)c1` the Potency was inconclusive: 16.4 µM [activator, single point]. With `COc1cc2ccccc2cc1C(=O)Nc1ccc(N2CCN(C)CC2)cc1` the Potency was active: 14.1 µM. For `CN1C(=O)/C(=C\c2cc(Br)cs2)c2ccccc21`, the Potency was inconclusive: 13 µM [activator, partial curve]. With `Cc1ccccc1Cn1c(=O)n(-c2ccccc2)c(=O)c2ccc(C(=O)NCc3ccco3)cc21` the Potency was inconclusive: 20.6 µM [activator, partial curve, poor fit]. In the case of `O=C(N/N=C/c1ccc[nH]1)c1ccc([N+](=O)[O-])cc1`, the “activity change, positive = activation” value was inactive: 2.43%. With `O=C(COC(=O)/C=C/c1ccccc1[N+](=O)[O-])Nc1ccc(OCc2ccccc2)cc1` the Potency was inconclusive: 14.6 µM [activator, partial curve, poor fit]. For `O=C(CNC(=O)c1ccco1)Nc1ccc(N2CCCCCC2)cc1`, the Potency was inconclusive: 25.9 µM [activator, partial curve, poor fit]. In the case of `O=C(O)CCCNC(=O)/C(=C\c1ccccc1F)NC(=O)c1ccccc1`, the Potency was inconclusive: 7.3 µM [activator, partial curve, poor fit]. With `CC(C)[C@H](NC(=O)c1ccco1)C(=O)OCC(=O)N1CCc2ccccc21` the Potency was inconclusive: 16.4 µM [activator, partial curve, poor fit]. For `O=C(/C=C/C=C/c1ccc2c(c1)OCO2)N1CCCCC1`, the Potency was active: 11.6 µM. With `CN1C(=O)C(O)(CC(=O)c2ccccn2)c2cc(Br)ccc21` (stereo not given) the Potency was inconclusive: 28.2 µM [activator, partial curve, poor fit]. In the case of `O=S(=O)(c1ccc(F)cc1)N1CCCC(c2nc(-c3ccc(F)cc3)no2)C1` (stereo not given), the Potency was inconclusive: 18.3 µM [activator, single point]. In the case of `Cc1ccc(/C=N/c2sc3c(c2C#N)CCC3)o1`, the Potency was inconclusive: 8.2 µM [activator, partial curve]. For `COc1ccc(NC(=S)N2N=CCC2c2ccccc2)cc1` (stereo not given), the Potency was active: 4.11 µM. For `O=c1c2ccccc2nc2n1CCc1c-2[nH]c2ccccc12`, the Potency was active: 3.26 µM. In the case of `Cc1cccc(/C=C(\C(=O)C(=O)O)c2ccc3ccccc3n2)c1`, the Potency was active: 14.6 µM. For `Cc1ccc(C(=O)Oc2cccc(-n3cnnn3)c2)cc1`, the Potency was inconclusive: 29.1 µM [activator, partial curve, poor fit]. In the case of `CCN1C(=O)c2ccc(C(=O)Nc3ncc(C)s3)cc2C1=O`, the Potency was inconclusive: 20.6 µM [activator, partial curve, poor fit]. In the case of `O=C(COc1ccc(S(=O)(=O)N2CCCC2)cc1Cl)NC1CC1`, the “activity change, positive = activation” value was inactive: -0.353%. In the case of `Cc1ccc(N=c2sc(C)c(C)n2C)cc1`, the Potency was inconclusive: 32.6 µM [activator, partial curve, poor fit]. For `Cc1cc(C(=O)NC2CCC(C)CC2)c(C)o1` (stereo not given), the Potency was active: 5.17 µM. With `CC1(C(=O)N2CC3(CC(c4cccc(NC(=O)CC(c5ccccc5)c5ccccc5)c4)=NO3)C[C@@H]2C(N)=O)CC1` (stereo not given in full) the “activity change, positive = activation” value was inactive: -5.12%. For `N#Cc1ccc(-c2cn3c(n2)SCC3)cc1`, the Potency was inconclusive: 14.6 µM [activator, partial curve, poor fit]. In the case of `CCCS/C(N)=N/N=C/c1cc(C)ccc1O`, the Potency was active: 6.51 µM. For `CCc1c(C)nc2ncnn2c1Nc1ccc(C(C)=O)cc1`, the Potency was active: 18.4 µM. In the case of `O=c1c2ccccc2cnn1CCOc1ccccc1`, the Potency was inconclusive: 0.326 µM [activator, full curve]. In the case of `CN(C)CCCN(C(=O)c1ccc(Br)s1)c1nc2cc3c(cc2s1)OCCO3`, the Potency was inconclusive: 20.6 µM [activator, single point]. With `O=C(COc1cccc(NC(=O)c2cccc([N+](=O)[O-])c2)c1)c1ccc(Br)cc1` the “activity change, positive = activation” value was inactive: -8.65%. For `CC1CCCN(C(=O)c2ccc(-c3ccccc3Cl)o2)C1` (stereo not given), the Potency was active: 14.6 µM. With `O=C(Nc1nc2ccccc2[nH]1)c1ccccc1F` the Potency was inconclusive: 0.116 µM [activator, full curve, poor fit]. With `Cc1nc2c(-c3ccccc3)cnn2c(N)c1-c1ccccc1` the Potency was inconclusive: 0.259 µM [activator, full curve]. With `CCOc1ccc(CCNC(=O)COC(=O)c2cccc(N(C)C)c2)cc1OCC` the Potency was active: 1.83 µM. For `O=C(NCC1CCCO1)c1sc2ccccc2c1Cl` (stereo not given), the Potency was inconclusive: 14.6 µM [activator, partial curve]. In the case of `Nc1ccccc1-c1nc2ccccc2[nH]1`, the Potency was active: 10.3 µM. With `C/C(=N\Nc1nc2ccccc2[nH]1)c1ccccn1` the Potency was active: 2.51 µM. With `COc1ccc(C(CNC(=O)c2oc3ccc(OC)cc3c2C)N2CCCC2)cc1` (stereo not given) the “activity change, positive = activation” value was inactive: -0.436%. For `CC(C)(C)NS(=O)(=O)c1cccc(S(=O)(=O)c2cccc(S(=O)(=O)NC(C)(C)C)c2)c1`, the Potency was inconclusive: 5.17 µM [activator, full curve]. In the case of `COc1ccc(-c2c(-c3cc(OC)cc(OC)c3)n(C)c3ccc(-c4cc(F)cc(OC)c4)cc23)cc1`, the “activity change, positive = activation” value was inactive: 5.83%. In the case of `Cc1c(C(=O)OC2CCCCC2)sc2nc[nH]c(=O)c12`, the Potency was inconclusive: 35.5 µM [activator, single point]. For `CC(NC(=O)CN1CCN(CC(=O)Nc2ccccc2Cl)CC1)c1ccc(Br)cc1` (stereo not given), the “activity change, positive = activation” value was inactive: -4.86%. In the case of `CC(C)Oc1ccc(C(=O)NC2CCCCC2)cc1`, the Potency was active: 18.4 µM. In the case of `O=C(CCN1C(=O)S/C(=C\C=C\c2ccccc2)C1=O)Nc1ccc(O)cc1`, the Potency was active: 13 µM. In the case of `Cc1nc(NC(=O)c2cccc(-c3cc4ccccc4oc3=O)c2)ccc1Br`, the “activity change, positive = activation” value was inactive: 9.13%. With `O=C(NCc1cccnc1)c1ccc(NS(=O)(=O)c2cccc([N+](=O)[O-])c2)cc1` the “activity change, positive = activation” value was inactive: 0.484%. For `CCOC(=O)Cc1cc(=O)n2[nH]c(-c3ccc(C)cc3)cc2n1`, the Potency was inconclusive: 25.9 µM [activator, partial curve, poor fit]. In the case of `Nc1nc(Nc2ccccc2Br)nc(C(F)(F)F)n1`, the Potency was inconclusive: 20.6 µM [activator, single point]. With `CCc1nnc(NC(=O)CSc2nnc(C(C)NC(=O)c3ccccc3F)n2C)s1` (stereo not given) the “activity change, positive = activation” value was inactive: -0.666%. For `Cc1nn(CC(C)C(=O)N2CCN(S(=O)(=O)c3ccc(Cl)cc3)CC2)c(C)c1C` (stereo not given), the “activity change, positive = activation” value was inactive: -4.41%.
